From the supplement of paper PMC11417369
± gives the standard deviation of the averaged measurements. Some of the results follow.

system: PfAP2-G AP2 domain (GST-tagged); assay: gcPBM binding intensity (ln(normalized median fluorescence intensity)); higher = stronger DNA binding
Method in brief: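 Binding intensity values are the highest Masliner-normalised natural-log median intensity among replicate spots of either probe orientation. The binding step lasted 1 h in 1× PBS with 1% milk, 0.2 mg/ml BSA, 0.5% salmon testes DNA and 0.03% Triton X-100, using GST-tagged P. falciparum DNA-binding domains expressed in E. coli on an Agilent 4 × 180k array of primer-extended double-stranded 36-bp intergenic genomic probes plus negative controls. Alexa488 anti-GST antibody and a 488 nm scan detected bound protein.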

| Sequence | gcPBM binding intensity (ln) |
| --- | --- |
| TTCCTTATTATTATTTTACACACGTCCTAATAAGAG [CACACA_site8364] | 10.4 ± 0.4 |
| GCTTGTACATTTTTAAAAAATGACTTCGAAAGGAAT [CACACA_negctrl_site453] | 11 ± 0.69 |
| TTTATGCATAGAGAAACATGCAAGAAAGATGCAAAA [TGCATGCA_site726] | 10 ± 0.13 |
| ATATATTTATATATATGTACATATTATGTTAAGAAA [XGTACX_site1111] | 11.1 ± 0.58 |
| ATTATGTATACATAAACACACATATTTATAAAAAAA [CACACA_site6261] | 10.2 ± 0.16 |
| TGTATATATATCTCAGTGCATTGCAAATTAAAAATT [GTGCAC_site9646] | 9.88 ± 0.13 |
| ATACTCACGTGACACACACACAATATAAATAAATAT [CACACA_site7862] | 10.4 ± 0.4 |
| AAAAAAAAACAGAAAACACACAAATTATCTTATAAT [CACACA_site4326] | 9.61 ± 0.3 |
| TATAATAATCTAATCTGTAGTTTTTTTTTTTTTTTT [CACACA_negctrl_site1206] | 9.99 ± 0.14 |
| GGCTTTTTTTAATATGCACACATATATTTTATATAT [CACACA_site8647] | 10.1 ± 0.11 |
| ATATTACTATATTATTGTACGTTAAAAAAAAAAAAT [XGTACX_site8734] | 11.3 ± 0.8 |
| ATAAAAATAAACATACGTACTTACACGAATATACAT [XGTACX_site5989] | 11.1 ± 0.65 |
| CTTGAAAAAATAAAAACACACAATGTGTTTTTGAAT [CACACA_site3283] | 9.71 ± 0.11 |
| TTAGATTTAAATATCATACACACTTTATATATAATA [CACACA_site959] | 9.74 ± 0.14 |
| TTTCTAAATAATTATAATGAATCTGCAAACAAGCAT [XGTACX_negctrl_site391] | 9.57 ± 0.028 |
| TTATATTAAAAAAGATGTACGTTTAGGAAAAATATA [XGTACX_site7456] | 11.2 ± 0.69 |
| AATAAATAAATAAATAAATATATATATATATATATA [GTGCAC_negctrl_site224] | 9.88 ± 0.67 |
| TATATATTTATTTATAGTACACTATTTATGAAAACC [XGTACX_site3062] | 11.3 ± 1.1 |
| CATTATTATTAACATACACACGTGTTATATACCCCC [CACACA_site9365] | 11 ± 0.61 |
| TAACATAAATTTAGGAGTACACTTTTTATACATACA [XGTACX_site4066] | 11.7 ± 1 |
| AAAAATTTTTTTTTTTTTTTAAATAATAAAAATGAA [CACACA_negctrl_site1435] | 9.63 ± 0.099 |
| TATTATTATTTTATGGTGCAAAAAAAAAAAAAAAAA | 10.1 ± 0.61 |
| AACATACGACAATACGCACACATATCTGTACATATT [CACACA_site5115] | 11.3 ± 0.65 |

| Sequence | gcPBM binding intensity (ln) |
| --- | --- |
| TTTATATATTTTGTCGTGCACATTTGGAAAATTACA [GTGCAC_site9776] | 10.4 ± 0.4 |
| AAATTCACAATGTTTGGTACACATAAAAAAAAAAGA [XGTACX_site7109] | 11.2 ± 0.9 |
| TATTTTTAAAATTAAATGAATAAATAAATAAATATA [XGTACX_negctrl_site553] | 9.54 ± 0.11 |
| AATAAAATGGAATACGGTACACATAATCCTAAAATG [XGTACX_site926] | 11 ± 0.63 |
| ATATTATAAAATAAAAGTACACAATTATATATATAT [XGTACX_site8812] | 11.4 ± 0.93 |
| TTTATATTTATTGTTGTGCACAGAACCATATTCGTT | 10.6 ± 0.42 |
| TATCACTATAGACAAGCATGCATATGTACTAATATC [TGCATGCA_site1020] | 11 ± 0.79 |
| TGCAGTCTGGAGAAACGTACACAGTATCTGGTAACA [XGTACX_site2014] | 11.3 ± 0.79 |
| ATGTGTATAATTAAATGTACATATATATATATATAT [XGTACX_site829] | 11.2 ± 0.42 |
| CTTTTATTCAAAAGATGTACTTAAATATATATCTAA [XGTACX_site4326] | 11.2 ± 0.76 |
| ATATATATCGGACACACACACATGTTTTAAAACTAT [CACACA_site4218] | 10.9 ± 0.64 |
| TTAAACTTGAGACACACACACACACGGATATAAAAA [CACACA_site6495] | 10.3 ± 0.18 |
| ATTTGAAATTGGTAGACACACAATAAAATATCAAAA [CACACA_site447] | 10.2 ± 0.33 |
| AAAAAGTTATTATGAACACACATTTATTATAGTCAT [CACACA_site6838] | 9.94 ± 0.014 |
| CATATAAATATTTGTGCACACAATTATTAATAATTA [CACACA_site3884] | 10.6 ± 0.34 |
| ATATATATAAAATGTTGTACATATATATAAATAATA [XGTACX_site1661] | 11.1 ± 0.73 |
| TTAAAATAGGGCGAAGAAATTTTCTGTAAACATTTG [CACACA_negctrl_site1010] | 9.985 ± 0.078 |
| ATATGCTTATATTATATATATAAGTCTATATATTTT [XGTACX_negctrl_site349] | 9.58 ± 0.11 |
| GGGTTTTTAAAATGTAGTACATATGTAAACATCAAA [XGTACX_site1262] | 11.4 ± 0.94 |
| CTAAAATACAGACACACACACACATATATATATATA [CACACA_site4150] | 10.2 ± 0.31 |
| TGAATATTTCTATATACACACATATATATATATATA [CACACA_site3451] | 10.2 ± 0.49 |
| TTTAATAATAATAAAAGTACACAAATATAAAGGAAA [XGTACX_site5203] | 11.5 ± 0.69 |
| CATAAATAAGCTTTAGTGCATTATATTTAAATTTTT | 9.725 ± 0.049 |

| Sequence | gcPBM binding intensity (ln) |
| --- | --- |
| ATAAAATGAACCTTTTGTACATATATATATATATAT [XGTACX_site4610] | 10.8 ± 0.52 |
| ATATTATATATATATAAACACACAAATATTTTTATA [CACACA_site8486] | 9.97 ± 0.014 |
| AACATCTCATATCGTACTACACTCATATATATATAT [XGTACX_site170] | 11.1 ± 0.58 |
| TCACGTATGTATATTACACACATACATATTATTCAC [CACACA_site4276] | 9.975 ± 0.064 |
| AGGTTTTCTTAAATAGTGCATTATAACAAAAATAAA | 10.2 ± 0.35 |
| TTTCATTTGTCGTTATGTACTTATTAAATATTATTA [XGTACX_site7709] | 11.4 ± 0.81 |
| AAACAATAAAAGATTACACACATATATAGCATCTAT [CACACA_site5012] | 9.63 ± 0.38 |
| TAAAGTAAAGACATACTTATTTTCCATCCACTTCTT [CACACA_negctrl_site1288] | 10 ± 0.18 |
| CACATACAGACATACACACATACACATATACGCATA [CACACA_site1745] | 10.2 ± 0.13 |
| TCTGTATATTTCGCGCGTACGAACAAATTGATAATT [XGTACX_site7965] | 11.2 ± 0.76 |
| ATATAATATGGTATTACACACTGTTAAAAGTATGGC [CACACA_site5190] | 10.11 ± 0.049 |
| ATATATATTTTTATAACACACAATGAAGTACATTAC [CACACA_site8270] | 11.4 ± 0.96 |
| TTTATATTTATATATACACACATATACATCCTATTT [CACACA_site3079] | 10 ± 0.16 |
| ATATATATGGAAACAGTGCAATACATATATATATAT | 10.3 ± 0.42 |
| ATATAGAACACCTGTGCATGCAAGTGCTAAAAAATT [TGCATGCA_site213] | 10.2 ± 0.2 |
| TAATATTATTTAGAGTGTACTCATAAATCAACAAAA [XGTACX_site5269] | 11.6 ± 1.1 |
| CTAAGCTAAGTAAGCTGTACTTCACCTTTATACAGT [XGTACX_site3087] | 11.5 ± 0.92 |
| CTATTTTTATATTATTGTACGTTGTTATTATATATA [XGTACX_site1469] | 11.2 ± 0.61 |
| ATTAAGTTAAACATTACACACTATGTATTATTTATG [CACACA_site973] | 10.025 ± 0.007 |
| TTTTTCTTAAAAAATTGTACACATATATATATATAT [XGTACX_site542] | 11.5 ± 0.75 |
| TTTTTTTTTTTTAATACACACATATTTATATTTATT [CACACA_site7802] | 9.9 ± 0.27 |
| AATTAAAATAATAATACACACATCATAGAAAAAGAC [CACACA_site292] | 10.5 ± 0.33 |
| AAATTAGACTATAATACACACATAAAAAAAAAATCA [CACACA_site7672] | 10.1 ± 0.21 |

| Sequence | gcPBM binding intensity (ln) |
| --- | --- |
| TTATACTAAATGAACACACACACATCTATATTTATA [CACACA_site6199] | 9.995 ± 0.021 |
| TATTACATTGTTGAATGTACTCATTTAAAATTTATA [XGTACX_site7987] | 11.3 ± 0.88 |
| AATCAAAGCCCACATACACACACATATATATATATA [CACACA_site7987] | 10.3 ± 0.15 |
| ATGTCAAACATTTGCACACAAAAAAATAAAAATTAA [CACACA_site692] | 10.1 ± 0.35 |
| AATTGGGTAGGACATGCATGAGAAATTAATATTGCA [TGCATGCA_site356] | 10.7 ± 0.58 |
| ATATATATATATATATGTACTAACCTTTTAAAATAT [XGTACX_site6488] | 11 ± 0.69 |
| TTTTTTTTTTTTTGCACACACATAATAGGTACAAAT [CACACA_site3577] | 11.3 ± 1.1 |
| TTTTTTTTTTTTTTCTCACACATTTAATGATAATAT [CACACA_site5513] | 9.78 ± 0.34 |
| CATATTTACTATCACACACACGATATATATAAATAT [CACACA_site1241] | 10.13 ± 0.085 |
| TCATATTTCCATAGGAGTACATAAAAAAAATAATAT [XGTACX_site7601] | 11.7 ± 1.2 |
| TATGATATGTTATACACACACGTATTTATGAATTGA [CACACA_site7591] | 10.2 ± 0.15 |
| TTATGTAAAATCGATACATGCATTAATCATTTTATA [TGCATGCA_site493] | 9.86 ± 0.16 |
| ATCAACAAAACATACACACACATATAGATTTATATA [CACACA_site7415] | 9.915 ± 0.092 |
| AAAAAAAAAAAACACACACACATATATATATATATA [CACACA_site732] | 9.8 ± 0.23 |
| ATTTATATTAATGGATAAATAAATGTGTACTTGATA [CACACA_negctrl_site24] | 11.5 ± 1.4 |
| TTCTTTATTATATGCACACGTACATATAATATATAT [CACACA_site2018] | 11.4 ± 0.87 |
| GAAATAGAGAGACACACACACATATATTTATGTATT [CACACA_site7794] | 9.93 ± 0.028 |
| ATCATATTGAATATTTAACACACATTTCGCTTAATT [CACACA_site8652] | 9.935 ± 0.007 |
| AATTAGCTATTTAAAAATATATAAAATTTATATATA [CACACA_negctrl_site390] | 9.64 ± 0.25 |
| TATATATATAAAAGTTGTACAGTGTTTTATATAGTT [XGTACX_site7085] | 11.5 ± 1 |
